# Source: publication PMC6919601, “Identification of Plasmodium dipeptidyl aminopeptidase allosteric inhibitors by high throughput screening” (PLoS ONE, 2019)
# Screen size: about 110,000 compounds; about 230 (0.21%) showed an effect of 50% or more. The list shows a part of the results.
# Molecular target: DPAP1 (Plasmodium falciparum, UniProt Q8IIJ9)
# Assay: primary screen, percent inhibition; read by cleavage of a fluorogenic dipeptide substrate; higher = more effect of the substance
# Set-up: species or system P. falciparum D10 trophozoite lysates; single well
# 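Also: 30 min substrate incubation versus DMSO and 10 µM JCP410 controls.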
# Chain of DPAP1 (Q8IIJ9 whole entry, looked up): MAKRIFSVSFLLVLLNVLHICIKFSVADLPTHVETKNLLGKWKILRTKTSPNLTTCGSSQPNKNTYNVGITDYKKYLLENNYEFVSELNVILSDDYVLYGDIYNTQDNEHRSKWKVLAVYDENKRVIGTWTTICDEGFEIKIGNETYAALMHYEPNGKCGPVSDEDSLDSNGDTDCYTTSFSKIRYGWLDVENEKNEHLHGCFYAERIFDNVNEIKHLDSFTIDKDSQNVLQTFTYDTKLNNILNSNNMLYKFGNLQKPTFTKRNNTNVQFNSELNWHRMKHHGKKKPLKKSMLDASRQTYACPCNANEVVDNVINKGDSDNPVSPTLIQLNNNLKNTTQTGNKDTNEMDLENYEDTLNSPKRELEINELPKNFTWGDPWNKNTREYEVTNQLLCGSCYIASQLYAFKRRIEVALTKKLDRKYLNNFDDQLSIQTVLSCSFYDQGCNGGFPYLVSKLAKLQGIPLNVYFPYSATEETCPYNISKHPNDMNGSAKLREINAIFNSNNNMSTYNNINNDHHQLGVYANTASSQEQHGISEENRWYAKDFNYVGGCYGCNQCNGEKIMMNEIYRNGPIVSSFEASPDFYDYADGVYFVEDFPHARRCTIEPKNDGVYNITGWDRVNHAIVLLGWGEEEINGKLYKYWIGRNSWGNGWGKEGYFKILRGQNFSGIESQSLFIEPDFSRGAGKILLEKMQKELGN
row,Structure (SMILES),% Inhibition @ 10 uM [%]
1,NC(=O)c1ccccc1NC(=O)c1ccc(Cl)cc1,-3.24
2,COc1ccc(-c2nnc3n2C2(CCCCC2)Cc2ccccc2-3)cc1,2.22
3,COc1cc(NC(=O)c2cccc(C)c2)c(OC)cc1Cl,-1.93
4,O=C(NCc1ccc(Cl)cc1)c1csc2c1CCCC2,-5.05
5,COc1ccc(C(=O)N/C(=C\c2ccc3c(c2)OCO3)C(=O)NCCO)cc1,-2.68
6,Clc1ccc(OCc2nc3ccccc3[nH]2)c(Cl)c1,-1.69
7,CCN(CC)C(=O)Cn1c2ccccc2c2cnnc(O)c21,1.38
8,COC(=O)c1ccc(CN2CCOCC2)cc1,1.57
9,CCCCOc1ccc(C2C(C#N)=C(N)Oc3c2c(=O)oc2ccccc32)cc1OC (centres unmarked),10.8
10,O=C(O)C1CSC(c2ccccc2Cl)N1C(=O)c1cccc(Cl)c1 (centres unmarked),2.79
11,Cc1ccc(NC(=O)c2ccc(C(C)(C)C)cc2)nc1,-3.92
12,O=C1CC(Cc2ccccc2)NC(NC(=O)c2ccccc2)=N1 (centres unmarked),1.02
13,COc1cc2c(cc1OC)C1CC(=O)C(CC(C)C)CN1CC2 (centres unmarked),-1.82
14,O=C(Cn1nnnc1-c1ccc(Cl)cc1)NCc1ccccc1C(F)(F)F,-2.84
15,CC1=C(Cl)C(=O)C(C(C)C)=C/C1=N\S(=O)(=O)c1ccccc1,-2.87
16,COc1cccc(OCC(O)CN2CCC(Cc3ccccc3)CC2)c1 (centres unmarked),4.67
17,Cc1cc(C)cc(OCC(=O)Nc2ccc(CN3CCOCC3)cc2)c1,-4.97
18,CCC(C)NC(=O)C1c2ccccc2C(=O)N(C)C1c1c[nH]c2ccccc12 (centres unmarked),-5.88
19,Cc1ccc(S(=O)(=O)NCCc2ccc(S(N)(=O)=O)cc2)cc1,-0.968
20,COc1cccc2c1CCC(NC(C)=O)C2=O (centres unmarked),-2.76
21,COc1cccc(C2c3c(oc4ccccc4c3=O)C(=O)N2Cc2ccc(C)cc2)c1 (centres unmarked),6.52
22,COc1cc(/C=C2\SC(=O)N(Cc3ccc(F)cc3)C2=O)ccc1O,-3.87
23,CCC1(C)Cc2c(sc3nc(S)nc(N)c23)CO1 (centres unmarked),62.9
24,O=C(COc1ccc(Cl)cc1)NCCC12CC3CC(CC(C3)C1)C2,4.85
25,Cc1cc(C)c(C)c(S(=O)(=O)NCc2ccc(C(=O)N3CCCC3)cc2)c1C,-3.09
26,Cc1nc2ccc(S(=O)(=O)NCC(=O)NCCN3CCCCC3C)cc2s1 (centres unmarked),2.37
27,CCCCN(CCCC)c1nc(O)nc2[nH]cnc12,-0.636
28,CCc1cc(C(=O)O)c(NC(=O)c2ccccc2)s1,3.61
29,CC1(C)CC(=O)C2=C(C1)N(c1nc[nH]n1)C(N)=C(C#N)C2c1ccsc1 (centres unmarked),-0.99
